# Experimental data published in article PMC12136788.
# The other results are listed elsewhere or left out.
# T1: UNK ZnF1-3 (human, UniProt Q9C0B0 31-174)
# T1 sequence: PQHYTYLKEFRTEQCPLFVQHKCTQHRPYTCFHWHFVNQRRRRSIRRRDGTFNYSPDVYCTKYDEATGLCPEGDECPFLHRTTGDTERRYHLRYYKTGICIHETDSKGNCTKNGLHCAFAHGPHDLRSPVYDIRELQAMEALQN
# B1: chr7:17149110:17149111:-_ENSMUSG00000058230_ENSMUST00000075845|mus_hu|motif|central (ssRNA)
# RNA: GGGAGUUCUACAGUCCGACGAUCAAUAUCCAUGUAUACAGAUUCCUCCAGCCACUGGUAGAAAUCCUCAUUCAUAAUAAAACGGCGGGCCUCUUCCCAAGGCUUUCCGGGAGUUAUGAAAGGAGAAGUCUCCAGGUUUUCUUUCAACAGAGGAUUGAGCAUCA
# B2: chr12:493273:493274:-_ENSG00000073614_ENST00000399788|hu_mus|hu_hu_hu_mus_False|88_108 (ssRNA)
# RNA: GGGAGUUCUACAGUCCGACGAUCUUUUCUCUCUACCACAGGGAUCUUCAGAGUAGAUCCUUGAAGUUCCCAAAAUUUUGCCAGUUGAUCCAAGAAGUCCAAUCUUACUCUAGUCAUUGCCUCAAGUUCAUUCAGGCGCUGGACCAACAGAGGAUUGAGCAUCA
# B3: chr4:184628046:184628047:+_ENSG00000168538_ENST00000334690|hu_hu|FALSE|FALSE (ssRNA)
# RNA: GGGAGUUCUACAGUCCGACGAUCGAGACCUGAGAACAUGAAGGCAUCACUGGGCUCCACAGAAAUUUCUACAUCUUGAACUAAGUCGGUCUUAUUCUGUAGGUGAUACUUGACAGGUAACGACUCUCUGACACGCCCAAAUGACAACAGAGGAUUGAGCAUCA
# B4: chr2:216981417:216981418:+_ENSG00000079246_ENST00000392132|hu_hu|hu_hu_hu_mus_True|18_28 (ssRNA)
# RNA: GGGAGUUCUACAGUCCGACGAUCCUGAUACUGGUCCUUGCCAGCAAGGGCAUUAUCAGUGCCAUCUGUGCCAUAGAGGACUAACGCAAUCUCAUCUUUGCUCUCCGCAAACACCUGUCGCUGUACAAACAUAGUCAUCACUUUCAACAGAGGAUUGAGCAUCA
# B5: chr7:7679991:7679992:-_ENSG00000106399_ENST00000396682|hu_mus|FALSE|FALSE (ssRNA)
# RNA: GGGAGUUCUACAGUCCGACGAUCUGGGAUGAAUCUUUUCCAGCUUCCCCACGAAGCACACGGGCCGGUCGAUAUACUGUGGUAACAUGCUGGCGUUGACGCGCGCUUUGGGGAGCUGCAUUAUGUCCUCCAUGAUUCUGCCGCCAACAGAGGAUUGAGCAUCA
# B6: chr1:39469031:39469032:+_ENSG00000174574_ENST00000432648|hu_mus|FALSE|FALSE (ssRNA)
# RNA: GGGAGUUCUACAGUCCGACGAUCGUAUCGCCGCAUGAUCUGAUCAUGCGUGAAUUUCACAAACGAUUCAUACUGUUCUGCGAGUUUGGUACUGAGGAUUUGCUCAUACUCCUCUCGGACUUUAUCUUCAUAGUCUUUUAAGAGCAACAGAGGAUUGAGCAUCA
# Target: T1, UNK ZnF1-3
# Experiment: nsRBNS (natural sequence RNA bind-n-seq); RBNS binding buffer (assumed for nsRBNS): 25 mM Tris pH 7.5, 150 mM KCl, 3 mM MgCl2, 0.01% Triton X-100, 500 ug/ml BSA, 20 U/ml SUPERase-In, 4 C; UNK is unkempt and MSI1 is Musashi-1; names of the RNAs are library labels; protein concentration not given here; high values mean tight binding
row,Binder,binding signal [enrichment R]
1,B1,0.87
2,B2,0.99
3,B3,1.13
4,B4,0.811
5,B5,0.477
6,B6,0.53
